# This is one part of the list.
# Legend:
# Test in all cases: glycan array binding signal (z-score within array); higher = stronger binding
# Settings in all cases: glycan notation: IUPAC condensed, linker removed
# [1] = target: Fuc(a1-3)GlcNAc
# How it was run: (§1)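 The Consortium for Functional Glycomics database supplied 3228 glycan arrays, of which those lacking an available protein sequence were dropped. The binding signal, a within-array Z-score, was averaged across arrays of the same protein sequence and across linkers. Negative scores can be read as non-binding.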
# [2] = target: Fuc(a1-3)[Gal(b1-4)]Glc6S
# How it was run: as §1
# [3] = target: Fuc(a1-3)[Gal(b1-4)]GlcNAc
# How it was run: as §1
# [4] = target: Fuc(a1-3)[Gal(b1-4)]GlcNAc(b1-2)Man
# How it was run: as §1
# [5] = target: Fuc(a1-3)[Gal(b1-4)]GlcNAc(b1-2)Man(a1-3)[Fuc(a1-3)[Gal(b1-4)]GlcNAc(b1-2)Man(a1-6)]Man(b1-4)GlcNAc(b1-4)GlcNAc
# How it was run: as §1
# [6] = target: Fuc(a1-3)[Gal(b1-4)]GlcNAc(b1-2)Man(a1-3)[Fuc(a1-3)[Gal(b1-4)]GlcNAc(b1-2)Man(a1-6)]Man(b1-4)GlcNAc(b1-4)[Fuc(a1-6)]GlcNAc
# How it was run: as §1
# [7] = target: Fuc(a1-3)[Gal(b1-4)]GlcNAc(b1-3)Gal(b1-3)[Fuc(a1-4)]GlcNAc
# How it was run: as §1
# [8] = target: Fuc(a1-3)[Gal(b1-4)]GlcNAc(b1-3)Gal(b1-4)[Fuc(a1-3)]GlcNAc
# How it was run: as §1
# [9] = target: Fuc(a1-3)[Gal(b1-4)]GlcNAc(b1-3)Gal(b1-4)[Fuc(a1-3)]GlcNAc(b1-3)Gal(b1-4)[Fuc(a1-3)]GlcNAc
# How it was run: as §1
# [10] = target: Fuc(a1-3)[Gal(b1-4)]GlcNAc(b1-3)GalNAc
# How it was run: as §1
# [11] = target: Fuc(a1-3)[Gal(b1-4)]GlcNAc(b1-6)GalNAc
# How it was run: as §1
# [12] = target: Fuc(a1-3)[Gal(b1-4)]GlcNAc(b1-6)[Gal(b1-3)GlcNAc(b1-3)]Gal(b1-4)Glc
# How it was run: as §1
# [13] = target: Fuc(a1-3)[Gal(b1-4)]GlcNAc6S
# How it was run: as §1
# [14] = target: Fuc(a1-3)[Gal3S(b1-4)]Glc
# How it was run: as §1
# [15] = target: Fuc(a1-3)[Gal3S(b1-4)]GlcNAc
# How it was run: as §1
# [16] = target: Fuc(a1-3)[Gal3S(b1-4)]GlcNAc6S
# How it was run: as §1
# [17] = target: Fuc(a1-3)[GalNAc(b1-4)]GlcNAc
# How it was run: as §1
# [18] = target: Fuc(a1-3)[GalNAc(b1-4)]GlcNAc6S
# How it was run: as §1
# [19] = target: Fuc(a1-4)GlcNAc
# How it was run: as §1
# [20] = target: Fuc(b1-3)GlcNAc
# How it was run: as §1
# [21] = target: Gal(a1-2)Gal
# How it was run: as §1
# [22] = target: Gal(a1-3)Gal
# How it was run: as §1
# [23] = target: Gal(a1-3)Gal(b1-3)GlcNAc
# How it was run: as §1
# [24] = target: Gal(a1-3)Gal(b1-3)GlcNAc(b1-2)Man
# How it was run: as §1
# [25] = target: Gal(a1-3)Gal(b1-3)GlcNAc(b1-2)Man(a1-3)[Gal(a1-3)Gal(b1-3)GlcNAc(b1-2)Man(a1-6)]Man(b1-4)GlcNAc(b1-4)GlcNAc
# How it was run: as §1
# [26] = target: Gal(a1-3)Gal(b1-3)GlcNAc(b1-3)GalNAc
# How it was run: as §1
# [27] = target: Gal(a1-3)Gal(b1-3)GlcNAc(b1-6)GalNAc
# How it was run: as §1
# [28] = target: Gal(a1-3)Gal(b1-3)[Fuc(a1-4)]GlcNAc(b1-2)Man(a1-3)[Gal(a1-3)Gal(b1-3)[Fuc(a1-4)]GlcNAc(b1-2)Man(a1-6)]Man(b1-4)GlcNAc(b1-4)GlcNAc
# How it was run: as §1
# [29] = target: Gal(a1-3)Gal(b1-4)Glc
# How it was run: as §1
# [30] = target: Gal(a1-3)Gal(b1-4)GlcNAc
# How it was run: as §1
# [31] = target: Gal(a1-3)Gal(b1-4)GlcNAc(b1-2)Man
# How it was run: as §1
# [32] = target: Gal(a1-3)Gal(b1-4)GlcNAc(b1-2)Man(a1-3)[Gal(a1-3)Gal(b1-4)GlcNAc(b1-2)Man(a1-6)]Man(b1-4)GlcNAc(b1-4)GlcNAc
# How it was run: as §1
# [33] = target: Gal(a1-3)Gal(b1-4)GlcNAc(b1-3)GalNAc
# How it was run: as §1
# [34] = target: Gal(a1-3)Gal(b1-4)GlcNAc(b1-6)GalNAc
# How it was run: as §1
# [35] = target: Gal(a1-3)Gal(b1-4)[Fuc(a1-3)]GlcNAc
# How it was run: as §1
# [36] = target: Gal(a1-3)Gal(b1-4)[Fuc(a1-3)]GlcNAc(b1-2)Man(a1-3)[Gal(a1-3)Gal(b1-4)[Fuc(a1-3)]GlcNAc(b1-2)Man(a1-6)]Man(b1-4)GlcNAc(b1-4)GlcNAc
# How it was run: as §1
# [37] = target: Gal(a1-3)GalNAc
# How it was run: as §1
binder,measurement,setting,value
PX15618B-bfa-464-25-464 (Bacteroides fragilis) (protein) DQEPPLYVNENDIFTSPTRIEATLNGLYAAIKNTGTKSLMGGKSYLVFDNRGDDVINISNNLVTLFNTYNMNVGITDAENADTWTYAYLAINKVNTFLQSLEGAREVAGENYDRYVQEAKFVRALAYYYLNNLYPTPYSVNPDAKSVPLRLTAEAGTENNNMPRSTVKQIYEHILSDLENISALDTEVNTYTGVTHATQAAANMLKMRVYMAMNEWDKAITAGELVTGYSLPEDVTLIYKAPYFSQESIFSLPMADTNIPNTQQSLAEYYYDGKIMLIDTKSGIMSKPDYSLATDKRIIAFKGEKDLLMKFTDAKTKLQWVPIFRYAETLLDLAECYANKAGGEATAKSLLKQVRGRSVDAATDPLNIDNLSGDALKEAIYNEKRLEFIGEGIRGIDIMRRGEHFIKVGENETINVGPSDEKYTWPIPQVELLLNKDINK,glycan array binding signal (z-score),[1],0.247
same,glycan array binding signal (z-score),[2],0.547
same,glycan array binding signal (z-score),[3],-0.675
same,glycan array binding signal (z-score),[4],-0.777
same,glycan array binding signal (z-score),[5],0.386
same,glycan array binding signal (z-score),[6],0.106
same,glycan array binding signal (z-score),[7],0.394
same,glycan array binding signal (z-score),[8],-0.087
same,glycan array binding signal (z-score),[9],-0.73
same,glycan array binding signal (z-score),[10],0.467
same,glycan array binding signal (z-score),[11],-0.191
same,glycan array binding signal (z-score),[12],-0.493
same,glycan array binding signal (z-score),[13],-0.315
same,glycan array binding signal (z-score),[14],-0.196
same,glycan array binding signal (z-score),[15],-0.118
same,glycan array binding signal (z-score),[16],-0.473
same,glycan array binding signal (z-score),[17],1.31
same,glycan array binding signal (z-score),[18],0.174
same,glycan array binding signal (z-score),[19],-0.529
same,glycan array binding signal (z-score),[20],0.689
same,glycan array binding signal (z-score),[21],-0.656
same,glycan array binding signal (z-score),[22],0.348
same,glycan array binding signal (z-score),[23],-0.21
same,glycan array binding signal (z-score),[24],0.341
same,glycan array binding signal (z-score),[25],0.622
same,glycan array binding signal (z-score),[26],0.054
same,glycan array binding signal (z-score),[27],0.328
same,glycan array binding signal (z-score),[28],0.331
same,glycan array binding signal (z-score),[29],-0.53
same,glycan array binding signal (z-score),[30],0.209
same,glycan array binding signal (z-score),[31],0.039
same,glycan array binding signal (z-score),[32],-0.105
same,glycan array binding signal (z-score),[33],-0.653
same,glycan array binding signal (z-score),[34],-0.037
same,glycan array binding signal (z-score),[35],-0.436
same,glycan array binding signal (z-score),[36],0.617
same,glycan array binding signal (z-score),[37],-0.322

# From the supplement of paper PMC8728848
